In the supplement of paper PMC3334620:
The full ranking holds about 33,000 sequences; the median of “E-score (-0.5 to 0.5)” is about -0.021, and the highest 2% start at about 0.32. Some of the results follow.

target: T1, Zap1 (UniProt P47043); assay: PBM E-score (8-mer binding enrichment) (E-score (-0.5 to 0.5)); higher = stronger / more preferred TF binding; most listed sequences are background and not binding sites; settings: protein concentration: 200 nM; construct: GST-full length
T1 sequence: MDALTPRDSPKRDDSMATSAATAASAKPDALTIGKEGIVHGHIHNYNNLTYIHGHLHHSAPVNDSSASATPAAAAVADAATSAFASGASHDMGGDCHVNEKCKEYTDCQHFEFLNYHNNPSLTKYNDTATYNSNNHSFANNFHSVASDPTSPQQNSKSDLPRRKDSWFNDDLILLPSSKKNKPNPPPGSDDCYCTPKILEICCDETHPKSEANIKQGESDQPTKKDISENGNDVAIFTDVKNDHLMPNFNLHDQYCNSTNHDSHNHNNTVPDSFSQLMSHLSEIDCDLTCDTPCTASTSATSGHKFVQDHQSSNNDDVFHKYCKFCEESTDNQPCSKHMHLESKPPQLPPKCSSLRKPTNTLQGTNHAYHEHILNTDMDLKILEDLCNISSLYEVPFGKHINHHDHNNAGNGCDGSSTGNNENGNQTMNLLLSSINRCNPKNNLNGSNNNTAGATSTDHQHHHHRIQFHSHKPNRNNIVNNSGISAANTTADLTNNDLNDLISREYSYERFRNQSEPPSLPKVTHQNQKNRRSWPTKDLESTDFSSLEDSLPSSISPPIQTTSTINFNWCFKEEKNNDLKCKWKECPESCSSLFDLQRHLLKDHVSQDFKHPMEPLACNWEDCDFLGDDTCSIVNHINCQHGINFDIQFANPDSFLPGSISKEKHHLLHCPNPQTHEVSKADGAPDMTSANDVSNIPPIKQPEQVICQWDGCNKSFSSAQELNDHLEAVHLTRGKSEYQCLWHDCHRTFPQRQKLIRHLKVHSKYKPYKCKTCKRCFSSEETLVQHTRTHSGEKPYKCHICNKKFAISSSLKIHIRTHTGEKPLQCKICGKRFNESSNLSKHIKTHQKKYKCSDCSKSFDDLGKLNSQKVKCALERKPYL
Outline: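 E-scores (a modified Wilcoxon-Mann-Whitney statistic) were assigned by the Universal PBM Analysis Suite to every ungapped eight-base word pooled with its reverse complement. The input came from universal all-10-mer Agilent arrays made double-stranded by primer extension and probed with GST-tagged yeast transcription factors at about 100-200 nM. Fluorescent anti-GST detected bound protein, and masliner normalised the scans.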

Row | Sequence | PBM E-score
1 | AGTGACTG | -0.0452
2 | ACCCCTCG | 0.347
3 | GCTCCACC | -0.264
4 | ATCGCCGG | -0.142
5 | ACCGTCGG | -0.0624
6 | CAGTTATC | 0.0632
7 | AGTGCTGC | -0.265
8 | AAAATCTA | 0.0234
9 | CTATGAGA | -0.141
10 | AAACTCTA | 0.0237
11 | CAGGTTAA | 0.325
12 | ACGAGAGA | -0.125
13 | AGCTACAA | -0.145
14 | ATGATGGC | -0.209
15 | CGATCCCC | -0.179
16 | AGCGGCCA | -0.137
17 | AAATCACA | -0.0161
18 | AAAATAGA | 0.133
19 | ATTCAGTC | -0.0768
20 | GATGCTAC | -0.227
21 | CCCGTGCC | -0.317
22 | TAGTACGA | 0.00069

Row | Sequence | PBM E-score
23 | TATAGTAA | 0.123
24 | CCCCCCTC | -0.435
25 | CGAGTCGC | -0.283
26 | AAGCGCAT | -0.0853
27 | GACAACAC | -0.0164
28 | ACCAATTA | 0.249
29 | ACACTACA | 0.0886
30 | TCCCGCAA | 0.0843
31 | CGTGACGA | 0.0724
32 | GATCACGC | -0.00269
33 | ACGGAGGC | -0.257
34 | GGAGTTGA | -0.194
35 | TATTACCA | 0.194
36 | CCAGTAGG | -0.122
37 | CTCCTAGC | -0.307
38 | ACGAATAG | -0.0113
39 | ACTCTCCG | -0.13
40 | ACCCACTG | 0.0823
41 | CAGTACCC | 0.313
42 | ACCTAAAA | 0.296
43 | GGCGTTCA | 0.00932
44 | GCGGTAGA | -0.114

Row | Sequence | PBM E-score
45 | CGCATACA | 0.0301
46 | TATACAGA | 0.0972
47 | ACTCTTAT | 0.119
48 | CGCGTCTC | -0.0996
49 | TCAGGACA | 0.0863
50 | CATCGCAC | -0.0948
51 | GACCGTTA | 0.2
52 | GCGGAATA | -0.108
53 | GCATGAAC | -0.0216
54 | CGGCGTTC | -0.194
55 | ATTGATAA | 0.109
56 | CCTAGTAG | -0.209
57 | CCCGACGA | 0.117
58 | CCTGGTAA | -0.0454
59 | GTCCCGGA | -0.217
60 | CAAGACGG | -0.0425
61 | ACCGAATA | 0.209
62 | ACCATCGT | -0.0674
63 | CAGATGGG | -0.0879
64 | AGCACAAA | 0.179
65 | GAGTTTTA | 0.0362
66 | CACCATGC | -0.194

Row | Sequence | PBM E-score
67 | ACACATAA | 0.107
68 | CCCCTTAA | -0.0744
69 | TCTCGGCA | -0.0878
70 | TCACGCGA | -0.048
71 | AACGGGAG | -0.0406
72 | GCACGCAC | -0.263
73 | GCGGGACC | -0.0776
74 | GAGCTTTA | -0.156
75 | TAGACGGA | -0.106
76 | AAGCTGCT | -0.176
77 | ACACGTAG | -0.116
78 | ACCTCACT | 0.106
79 | CCTCGAGA | 0.192
80 | GAGGCTTA | -0.23
81 | CGCAGTCC | -0.0786
82 | CTTCCAAC | -0.00474
83 | CGGTAGGC | -0.0205
84 | GTGGCTTA | -0.127
85 | CGTAGCAA | -0.142
86 | AGGGGAGA | -0.226
